The values that follow come from article PMC4170211.

Protein sequences, listed by entry. Tags and fused reporters are not part of them.
UniProt O60264: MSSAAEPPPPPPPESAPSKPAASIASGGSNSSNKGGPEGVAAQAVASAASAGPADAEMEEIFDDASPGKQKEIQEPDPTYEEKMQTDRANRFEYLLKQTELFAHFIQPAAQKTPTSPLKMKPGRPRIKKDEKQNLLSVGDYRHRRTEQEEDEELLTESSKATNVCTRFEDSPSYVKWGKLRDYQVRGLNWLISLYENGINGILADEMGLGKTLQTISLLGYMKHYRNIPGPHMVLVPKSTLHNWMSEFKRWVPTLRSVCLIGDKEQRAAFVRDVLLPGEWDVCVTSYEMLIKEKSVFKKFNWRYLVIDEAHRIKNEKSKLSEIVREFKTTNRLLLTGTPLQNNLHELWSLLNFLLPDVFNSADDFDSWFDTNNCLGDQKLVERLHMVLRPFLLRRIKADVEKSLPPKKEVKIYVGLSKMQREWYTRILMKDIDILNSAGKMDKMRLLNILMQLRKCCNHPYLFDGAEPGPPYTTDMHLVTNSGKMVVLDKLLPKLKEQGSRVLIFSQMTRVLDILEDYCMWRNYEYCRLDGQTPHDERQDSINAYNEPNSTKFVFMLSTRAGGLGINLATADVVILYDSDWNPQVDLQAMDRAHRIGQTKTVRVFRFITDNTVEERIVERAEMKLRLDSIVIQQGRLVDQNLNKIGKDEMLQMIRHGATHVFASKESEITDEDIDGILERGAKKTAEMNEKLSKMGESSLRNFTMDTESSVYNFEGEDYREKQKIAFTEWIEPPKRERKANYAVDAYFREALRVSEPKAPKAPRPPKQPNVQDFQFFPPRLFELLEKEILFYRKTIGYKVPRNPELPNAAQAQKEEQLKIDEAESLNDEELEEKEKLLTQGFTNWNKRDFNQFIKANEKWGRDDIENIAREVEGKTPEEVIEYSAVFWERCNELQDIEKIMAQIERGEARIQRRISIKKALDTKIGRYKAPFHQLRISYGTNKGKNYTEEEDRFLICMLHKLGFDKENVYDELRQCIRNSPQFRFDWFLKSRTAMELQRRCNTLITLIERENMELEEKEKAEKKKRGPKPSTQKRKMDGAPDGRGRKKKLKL

In test [1] the target is T1, Myc-Nde1 (mouse) (UniProt Q9CZA6).
T1 sequence: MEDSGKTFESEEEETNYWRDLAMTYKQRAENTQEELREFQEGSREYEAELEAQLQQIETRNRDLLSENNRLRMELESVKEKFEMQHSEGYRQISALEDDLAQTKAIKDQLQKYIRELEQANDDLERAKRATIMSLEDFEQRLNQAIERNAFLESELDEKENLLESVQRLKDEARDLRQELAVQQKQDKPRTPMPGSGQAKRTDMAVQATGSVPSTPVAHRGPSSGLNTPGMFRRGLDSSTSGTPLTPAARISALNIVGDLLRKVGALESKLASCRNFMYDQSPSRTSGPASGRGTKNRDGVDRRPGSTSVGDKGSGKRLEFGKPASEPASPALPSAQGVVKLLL
The experiment in a line: co-IP; Myc-Nde1 transfected in 293T, immunoprecipitated by anti-myc 9E10 (mouse IgG as control), endogenous partners by immunoblotting; 25 mM HEPES, 150 mM NaCl, 10 mM NaF, 100 uM Na3VO4, 0.5% NP40, 10% glycerol, protease inhibitors, 1 mM ATP. For orientation: In western blotting, separated proteins are transferred to a membrane and probed.

Test [2] concerns the target T2, Flag-NBD of SMC3 (Nde1 binding domain of Smc3) (UniProt Q9CW03).
T2 sequence: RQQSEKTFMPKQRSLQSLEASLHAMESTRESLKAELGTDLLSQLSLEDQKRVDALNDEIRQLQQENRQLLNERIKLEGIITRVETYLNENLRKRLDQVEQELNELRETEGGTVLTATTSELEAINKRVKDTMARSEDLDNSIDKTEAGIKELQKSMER
Put plainly: co-IP; Flag-NBD of SMC3 co-transfected with GFP-Nde1 in 293T, immunoprecipitated by the Flag antibody (mouse IgG as control), immunoblotting; 25 mM HEPES, 150 mM NaCl, 10 mM NaF, 100 uM Na3VO4, 0.5% NP40, 10% glycerol, protease inhibitors, 1 mM ATP.

No constants are given. Whether binding was seen depends on the method and setting. Binding seen in cells or lysates may run through a third protein. Some entries that bind do so weakly or less than the wild type. Sequences can lack the tags named with a protein.

As to “SNF2h, endogenous (from UniProt O60264 1-1052)”, the binding entry in test [1] is on record as “binds”. Regarding “structural maintenance of chromosomes 3 (SMC3), endogenous (from UniProt Q9UQE7 1-1217)”, the binding result in test [2] was “no binding”; in test [1] it was “binds”.
